The text below walks through data of patent US20250296996A1, “ANGIOPOIETIN-RELATED PROTEIN 7-SPECIFIC ANTIBODIES AND USES THEREOF” (Broadwing Bio, Inc., priority 2022, published 2025).

Data set [1] relates to rabbit ANGPTL7 protein (P66, rabbit ANGPTL7-his). Kind of data set: Octet HTX binding kinetics to P66 (rabbit ANGPTL7-his). The settings on record: P66 @ 200 nM. Here is the method:
(§1) Experiments were also conducted to determine the reactivity and dissociation constants (KA) of anti-ANGPTL7 antibodies with the rabbit ANGPTL7 protein. Binding experiments were performed on Octet HTX (ForteBio) in Rx PBS, pH 7.4, 0.1 mg/mi BSA, 0.05% Sodium Azide, and 0.02% Tween 20. Antibodies at a concentration of 50 nM were loaded on pre-hydrated AHC biosensors for 5 min. The loaded sensors were dipped into monovalent P66 (rabbit ANGPTL7-his) at a concentration of 200 nM for 5 min of association, followed by 10 min of dissociation. Results were analyzed with ForteBio Data Analysis 11.1 and fit to a 1:1 binding model to determine the monovalent KD. Responses (nm) at the end of association were also determined (Table 6).

Data set [2] deals with T1, mouse ANGPTL7 protein (muANGPTL7-his, R&D Systems) (Mus musculus, UniProt Q8R1Q3).
T1 construct: His; purchased R&D Systems
T1 sequence (Q8R1Q3 22-337): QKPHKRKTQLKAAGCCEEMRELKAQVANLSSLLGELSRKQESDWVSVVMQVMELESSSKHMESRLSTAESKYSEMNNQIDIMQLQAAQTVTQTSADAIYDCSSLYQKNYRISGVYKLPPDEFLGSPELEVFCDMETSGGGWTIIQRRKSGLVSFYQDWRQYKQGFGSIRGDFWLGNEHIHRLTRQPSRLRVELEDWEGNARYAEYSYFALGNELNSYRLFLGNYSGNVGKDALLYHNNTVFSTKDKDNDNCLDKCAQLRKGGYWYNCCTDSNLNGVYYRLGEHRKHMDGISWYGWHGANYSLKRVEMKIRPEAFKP
Kind of data set: Octet HTX binding kinetics to muANGPTL7-his. The settings on record: monovalent KD, 1:1 model; muANGPTL7-his @ 200 nM. On the procedure: as §1, with “(KD)” for “(KA)”, “mouse” for “rabbit”, “1×PBS,” for “Rx PBS,”, “[…].” for “min.”, “muANGPTL7-his (R&D Systems)” for “P66 (rabbit ANGPTL7-his)”, “5).” for “6).”

Data set [3] can be described thus: Differential scanning fluorimetry (Protein Thermal Shift assay), thermal stability. Type of data set: physicochemical. The settings on record: DSF, melt 25° C. to 95° C., triplicate; in °C (unit assumed). Here is the method: Human ANGPTL7 monoclonal antibody differential scanning fluorimetry (DSF). […] Among the many techniques used to study the stability of mAbs, differential scanning fluorimetry (DSF) offers both excellent throughput and minimal material consumption. DSF measures the temperature of the protein unfolding transition (Tm) based on the change in fluorescence intensity of an environmentally sensitive dye.
Experiments were conducted to assess the thermal stability of the human ANGPTL7 monoclonal antibodies (“ATX” antibodies) of the present disclosure by determining the melting temperature. Thermal stability was assessed via differential scanning fluorimetry (DSF) utilizing the Protein Thermal Shift (PTS) assay from Applied Biosystems. The assay was performed according to the manufacturer's instruction. Briefly, the antibody to be evaluated was prepared in triplicate by mixing with Protein Thermal Shift dye and buffer; a real-time melt experiment from 25° C. to 95° C. was run on QuantStudio 3. Data was analyzed by using Protein Thermal Shift Software and the melting temperature (Tm) was calculated from the melt curve (Table 1).

B1: ATX-P-423: human anti-ANGPTL7 monoclonal antibody; HCDR1-3 SEQ ID NOs 40, 56, 71; LCDR1-3 SEQ ID NOs 90, 102, 114 (antibody)
heavy: QVQLVESGGGVVQPGRSLRLSCAASGFTFSSYGMHWVRQAPGKGLEWVSHITYDGSDKYYGDSVKGRFTISRDNSKNTLYLQMNSLRAEDTAVYYCAKDGYSSGWWYFDYWGQGTLVTVSSASTKGPSVFPLAPSSKSTSGGTAALGCLVKDYFPEPVTVSWNSGALTSGVHTFPAVLQSSGLYSLSSVVTVPSSSLGTQTYICNVNHKPSNTKVDKRV[in this place human IgG1 Fc with changes]
light: DIQMTQSPSSLSASVGDRVTITCRASQGIRNDLGWYQQKPGKAPKRLIYAASSLQSGVPSRFSGSGSGTEFALTISSLQPEDFATYYCLQHNSYPLTFGGGTKLEIKRTVAAPSVFIFPPSDEQLKSGTASVVCLLNNFYPREAKVQWKVDNALQSGNSQESVTEQDSKDSTYSLSSTLTLSKADYEKHKVYACEVTHQGLSSPVTKSFNRGEC
Take B1: in data set [1], the “kdis(1/8)” value is reported as 5.54E−04 1/8. Also, the “KD (M)” value in data set [2] is “N.B”. In addition, the “Tm D - Mean” value in data set [3] came to 62.50.

B2: ATX-P-435: human anti-ANGPTL7 monoclonal antibody; HCDR1-3 SEQ ID NOs 76, 80, 84; LCDR1-3 SEQ ID NOs 143, 153, 163 (antibody)
heavy: QLQLQESGPGLVKPSETLSLTCTVSGGSISSSSSYWGWIRQPPGKGLEWIGSIYYSGSTYSNPSLKSRVTISVDTSKNQFSLKLSSVTAADTAVYYCARQYISGTEYFQYWGQGTLVTVSSASTKGPSVFPLAPSSKSTSGGTAALGCLVKDYFPEPVTVSWNSGALTSGVHTFPAVLQSSGLYSLSSVVTVPSSSLGTQTYICNVNHKPSNTKVDKRV[in this place human IgG1 Fc with changes]
light: EIVLTQSPATLSLSPGERATLSCRASQSVSNYLAWYQQKPGQAPRLLIYDASNRATGIPARFSGSGSGTDFTLTISSLEPEDFAVYYCQQRSNWPSFGQGTRLEIKRTVAAPSVFIFPPSDEQLKSGTASVVCLLNNFYPREAKVQWKVDNALQSGNSQESVTEQDSKDSTYSLSSTLTLSKADYEKHKVYACEVTHQGLSSPVTKSFNRGEC
For the molecule B2, the “kdis(1/8)” value in data set [1] is on record as “N.B”. Further, the “KD (M)” value in data set [1] (monovalent KD, 1:1 model) is “N.B”. In addition, the “KD (M)” value in data set [2] is “N.B”. In data set [3], the “Tm 2 - Mean” value is recorded as 78.38 and the “Tm D - Mean” value was found to be 62.68.
